Data from the BET-seq Pho4 binding data (Le et al. 2018).
The list shows a part of the results. Values were computed here from the reads of four pooled replicates and scatter widely.

These sequences were tested against T1, Pho4 (S. cerevisiae) (UniProt P07270) (assay: relative binding free energy (BET-seq); higher = weaker binding). Settings: reference: library average.
T1 sequence: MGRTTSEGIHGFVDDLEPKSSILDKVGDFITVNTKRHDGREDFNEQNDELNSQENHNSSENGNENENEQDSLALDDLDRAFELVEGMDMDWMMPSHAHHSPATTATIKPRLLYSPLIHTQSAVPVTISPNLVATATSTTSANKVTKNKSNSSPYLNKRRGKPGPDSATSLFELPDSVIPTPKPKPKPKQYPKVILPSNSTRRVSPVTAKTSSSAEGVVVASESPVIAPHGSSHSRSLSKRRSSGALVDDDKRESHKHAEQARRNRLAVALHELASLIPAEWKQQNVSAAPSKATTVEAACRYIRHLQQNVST

Sequence | relative binding free energy [kcal/mol]
GAGGTCACGTGATGTA | 0.25
AATATCACGTGGATTA | 0.11
TTTAACACGTGAGGAG | 0.26
GTGTGCACGTGACTAT | 0.22
AAGGGCACGTGGGAGG | -0.15
AGAATCACGTGATATG | 0.31
GGCATCACGTGTGATT | 0.21
ATAAGCACGTGAGTTT | 0.3
AGTTACACGTGGGACG | 0.14
GAGTTCACGTGGGTAC | 0.09
AAATTCACGTGGTAAT | 0.27
GTTGGCACGTGAATGT | 0.2
TAAGGCACGTGGCGTT | -0.21
ATAGTCACGTGGTAGA | 0.01
TGGGTCACGTGTGGAA | 0.18
TTGGTCACGTGGACAT | 0.18
TTTGGCACGTGAGAAA | 0.1
AAGTGCACGTGTAGTG | 0.09
TTGCTCACGTGCGAGG | 0.23
AGGGGCACGTGGTGGT | -0.07
GTTATCACGTGGCAGG | 0.34
CCGGGCACGTGTATTT | 0.05
GTTCTCACGTGGGTAT | 0.17
TCGTGCACGTGGGGCA | -0.3
TTCTACACGTGAGAGG | 0.34

Sequence | relative binding free energy [kcal/mol]
TTATGCACGTGGGTCA | -0.09
GGCCTCACGTGATGGG | 0.31
GGCATCACGTGTGGGG | 0.25
TTGTTCACGTGCTGGG | 0.36
AATGTCACGTGCATGG | 0
TCGAGCACGTGGCGGG | -0.19
TCAGACACGTGTGTGA | 0.15
GGCGGCACGTGGAGTA | -0.1
TGTATCACGTGGGGAG | -0.04
GGGGTCACGTGGCCTT | 0.14
TAAGTCACGTGGAGAA | 0.21
TTGGACACGTGGTGAC | 0.12
TGAATCACGTGTTTAG | 0.25
CTTAGCACGTGTAGAT | 0.23
TTGGTCACGTGTTTTT | 0.23
GCGGGCACGTGGTAAG | -0.23
CTGTCCACGTGGCGGG | 0.01
TCTTTCACGTGGTGTT | 0.18
CTTTACACGTGGAGTG | 0.04
GCGAGCACGTGTTTGT | -0.07
GATATCACGTGTGGGT | 0.22
TGGAGCACGTGAATTG | 0.23
GCGTGCACGTGAGATG | 0.34
TGGATCACGTGTGTTC | 0.24
GGAGTCACGTGATGAG | 0.27

Sequence | relative binding free energy [kcal/mol]
TGTAGCACGTGCTATA | -0.06
TAGGCCACGTGGCGTT | -0.15
TGGCGCACGTGGATAT | -0.02
TGTGGCACGTGCCTGT | -0.21
TAATCCACGTGTGGTG | 0.09
GGGTTCACGTGTAGCA | 0.24
TGTGGCACGTGCTTTC | -0.04
GTATGCACGTGGGTTT | -0.05
CGGGTCACGTGGACGG | 0.04
TGGTGCACGTGAAATA | 0.31
GTAAACACGTGTCGGG | 0.09
GGTCACACGTGGTTAG | 0.18
CTGGGCACGTGGTACG | -0.35
GGTGCCACGTGGTCGG | -0.27
CGTTGCACGTGAAGGG | 0.24
TGTCTCACGTGGTGAT | 0.17
TGTAGCACGTGGAAGG | 0
CATTTCACGTGTATGT | 0.24
GGGTGCACGTGGTTTC | -0.03
AGGCACACGTGGCGTG | 0.01
TTTGACACGTGGGGTG | -0.04
TGGCGCACGTGCTTTT | -0.1
TTGGACACGTGTTCGG | 0.16
